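Briefly, cells in 96-well plates were exposed to five compound concentrations for 48 h, and endpoints were estimated by linear interpolation. At the GI50, growth is halved. The concentration for full growth arrest is given as TGI.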
System: NCI-H322M lung
Assay: NCI anticancer screen, dose series, 48 h

SMILES: Cc1ccc2c(n1)C(=O)C(Cl)=C(Nc1cc(C(F)(F)F)cc(C(F)(F)F)c1)C2=O
- GI50: 15.5 µM
- TGI: 31.8 µM

SMILES: O=C(NNc1nc2cc(F)cc(F)c2n2cccc12)c1cnccn1
- GI50: 0.26 µM
- TGI: 11.7 µM

From PubChem BioAssay (NCI)
